Measured values reported in PubChem BioAssay AID1745853 (National Center for Advancing Translational Sciences (NCATS), 2022).
“And” between values parts separate entries of the source, which are not always exact repeats. Equal values may be shown once. This is one part of the list. The main result of the screen is listed elsewhere. These columns were measured beside it and carry no call.

Tests used:
Experiment in all cases: Primary Screen for Target Class Profiling of Small Molecule Inhibitors of Methyltransferases
[1] = target: Glycine N-methyltransferase (Homo sapiens) (UniProt Q14749); conditions: purified enzyme, MTase-Glo SAH luminescence; measured here: GNMT inhibition; at 40 µM; stronger effect = lower value
Method in brief: (§1)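 Each enzyme was reacted with SAM and its substrate, with compounds tested once at 40 uM; SAH formed was read by MTase-Glo luminescence.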

[2] = target: Guanidinoacetate N-methyltransferase (Homo sapiens) (UniProt Q14353); conditions: purified enzyme, MTase-Glo SAH luminescence; measured here: GAMT inhibition; at 40 µM; stronger effect = lower value
Method in brief: as §1

[3] = target: Histamine N-methyltransferase (Homo sapiens) (UniProt P50135); conditions: purified enzyme, MTase-Glo SAH luminescence; measured here: HNMT inhibition; at 40 µM; stronger effect = lower value
Method in brief: as §1

[4] = target: Nicotinamide N-methyltransferase (Homo sapiens) (UniProt P40261); conditions: purified enzyme, MTase-Glo SAH luminescence; measured here: NNMT inhibition; at 40 µM; stronger effect = lower value
Method in brief: as §1

[5] = target: Phenylethanolamine N-methyltransferase (Homo sapiens) (UniProt P11086); conditions: purified enzyme, MTase-Glo SAH luminescence; measured here: PNMT inhibition; at 40 µM; stronger effect = lower value
Method in brief: as §1
On the % scale 0 is the no-effect control and ±100 the full control effect.

Row | SMILES | activity change, negative = inhibition [1] [%] | activity change, negative = inhibition [2] [%] | activity change, negative = inhibition [3] [%] | activity change, negative = inhibition [4] | activity change, negative = inhibition [5]
1 | COc1ccc(C)cc1NC(=O)N1Cc2ccccc2-n2cccc2C1c1ccc(OC)c(OC)c1 (stereo not given) | 12.7 | 1.23 | 5.72 | 2.17% | 8.44%
2 | Cc1ccccc1NC(=O)N1Cc2ccccc2-n2cccc2C1c1ccccc1Cl (stereo not given) | 6.87 | -0.961 | -3.28 | -9.04% | -1.27%
3 | COc1ccc(-c2cc([C@H]3CN4CC[C@H]3C[C@@H]4COC(=O)NC3CCCCC3)nc(C)n2)cc1 | -4.92 | -6.92 | -2.48 | -16% | 8.19%
4 | COCCCNC(=O)N1Cc2ccccc2-n2cccc2C1c1ccc(OC)c(OC)c1 (stereo not given) | 4.91 | 0 | 1.1 | -1.16% | 3.96%
5 | O=C(Nc1ccc(F)cc1)N1Cc2ccccc2-n2cccc2C1c1cccs1 (stereo not given) | 7.49 | 0.767 | -2.89 | -6.07% | -1.82%
6 | O=C(N[C@H]1N=C(c2ccccc2F)c2cccc3c2N(CC3)C1=O)c1cc2ccccc2[nH]1 | 4.16 | -10.9 | 3.73 | -25.2% | -2.08%
7 | CN1[C@@H]2CC[C@H]1CC(OC(=O)C1C=Nc3ccccc31)C2 (stereo not given in full) | -6.93 | -1.97 | -8.15 | -13.6% | -6.48%
8 | COc1ccc(CN(C(=O)[C@@H](N)Cc2c(C)cc(C(N)=O)cc2C)[C@@H](C)c2ncc(-c3ccccc3)[nH]2)cc1C(=O)O | -2.75 | 5.1 | -2.86 | -16% | -6.24%
9 | C/C=C(\C)C(=O)OC1C(C)OC(OC2C(C)OC(OC3CCC4(C)C(=CCC5C4CCC4(C)C(C(C)OC6OC(COC7OC(CO)C(O)C(O)C7O)C(O)C(O)C6O)CCC54O)C3)CC2OC)C(O)C1OC (stereo not given) | 0 | 19.8 | 10.9 | 8.92% | 6.44%
10 | O=C(Nc1cc(F)ccc1F)N1Cc2ccccc2-n2cccc2C1c1ccc(F)cc1 (stereo not given) | 3.27 | 0 | 3.56 | 1.73% | 5.96%
11 | O=C(Nc1cccc(Cl)c1)N1Cc2ccccc2-n2cccc2C1c1ccc(F)cc1 (stereo not given) | 2.72 | 0.36 | 4.09 | 5.11% | 6.35%
12 | Cc1nc(CCN)no1 | -5.57 | -11.9 | -5.59 | -9.32% | -11.4%
13 | C=CC(C)(C)c1[nH]c2c(CC=C(C)C)cc(CC=C(C)C)cc2c1C[C@@H]1NC(=O)[C@H](C)NC1=O | 0.845 | -1.34 | 6.16 | -7.84% | -0.855%
14 | Cc1ccccc1-n1c(Cn2ncc3c(N)ncnc32)nc2cccc(C)c2c1=O | -1.51 | 5.12 | 7.73 | -18.7% | 3.94%
15 | CN(C)c1ccc(C2c3cccn3-c3ccccc3CN2C(=O)Nc2cccc(Cl)c2)cc1 (stereo not given) | -5.45 | -2.87 | -11.6 | -10.7% | -6.19%
16 | COc1ccccc1NC(=O)N1Cc2ccccc2-n2cccc2C1c1ccccc1C (stereo not given) | 1.39 | 1.57 | 0.893 | -1.39% | -3.14%
17 | C#C[C@H]1CN2CC[C@H]1C[C@@H]2CNS(=O)(=O)c1cccs1 | -6.36 | -7.82 | -3.81 | -8.97% | 5.18%
18 | C[C@]12CCC3C(CC[C@H]4C[C@H](O)CC[C@]34C)C1CC[C@@H]2C(=O)CO (stereo not given in full) | -2.1 | 14.4 | 7.2 | -5.21% | 5.08%
19 | CCOC(=O)CNC(=O)N1Cc2ccccc2-n2cccc2C1CC (stereo not given) | -2.65 | 3.49 | -4.42 | -1.61% | -0.616%

Row | SMILES | activity change, negative = inhibition [1] [%] | activity change, negative = inhibition [2] [%] | activity change, negative = inhibition [3] [%] | activity change, negative = inhibition [4] | activity change, negative = inhibition [5]
20 | COc1ccc(OC)c(C(O)C(C)N)c1 (stereo not given) | 3.73 | 10.8 | 5.68 | -1.63% | 6.44%
21 | COc1ccc(C)cc1NC(=O)N1Cc2ccccc2-n2cccc2C1c1ccccc1 (stereo not given) | -3.76 | 1.07 | 0.263 | -5.92% | -0.448%
22 | Cc1ccc([C@H]2C[C@@H](O)[C@@H](O)[C@@H]2NCC(C)C)cc1 | -4.38 | -6.47 | -2.49 | -10.5% | -4.03%
23 | COC(=O)[C@]12CCCC(C)(C)C1CCc1cc(C(C)C)c(O)c(O)c12 (stereo not given in full) | 2.4 | -3.34 | 7.09 | -20.2% | -2.49%
24 | CCCCCCn1c(=O)c(C(=O)Nc2ccc(C(=O)OCCC)cc2)c(O)c2ccccc21 | -5.11 | -9.17 | 5.75 | -20.7% | -2.5%
25 | CC(C)NC(=O)NC[C@H]1C[C@@H]2CCN1C[C@@H]2CN1CCC(Cc2ccccc2)CC1 | -1.37 | -5.27 | -20.4 | -10.9% | 6.29%
26 | O=C(NCCc1ccccc1)N1Cc2ccccc2-n2cccc2C1c1ccc(F)cc1 (stereo not given) | -2.28 | -1.85 | -5.6 | -8.47% | -2.65%
27 | CCOc1ccccc1NC(=O)N1Cc2ccccc2-n2cccc2C1CC (stereo not given) | -22.8 | 1.85 | 0.698 | -2.53% | 2.23%
28 | CCOC(=O)c1cccc(NC(=O)N2Cc3ccccc3-n3cccc3C2c2ccc(OC)cc2)c1 (stereo not given) | 8.27 | 2.21 | 1.5 | -2.19% | 1.71%
29 | Cc1cccc(NC(=O)N2Cc3ccccc3-n3cccc3C2c2ccc(Cl)cc2)c1 (stereo not given) | -0.355 | 3.02 | 9.2 | 5.8% | 10.8%
30 | Cc1sc2c(c1C)C(c1ccc(Cl)cc1)=N[C@@H](CC(=O)OC(C)(C)C)c1nnc(C)n1-2 | -6.16 | 5.81 | 8.84 | -34.1% and -40.7% | 11.6% and -1.62%
31 | O=C1NCCCCCCN[C@H]2CCC[C@@H]12 | -0.786 | 1.07 | 1.02 | 2.38% | 1.97%
32 | C[C@@H](CN1CCC(n2c(=O)[nH]c3cc(Br)ccc32)CC1)NC(=O)[C@@H]1C[C@H]1c1ccccc1 | -2.83 | -2.78 | -3.59 | -23.3% | -7.64%
33 | Cc1ccc(Cl)cc1NC(=O)N1Cc2ccccc2-n2cccc2C1c1ccc(N(C)C)cc1 (stereo not given) | 7.63 | 0 | 2.08 | 4.6% | 5.23%
34 | CCc1ccc(C2c3cccn3-c3ccccc3CN2C(=O)Nc2cccc(OC)c2)cc1 (stereo not given) | 2.9 | 5.59 | -5.14 | -2.83% | 2.38%
35 | CC(=O)c1ccc(NC(=O)OC[C@H]2C[C@@H]3CCN2C[C@@H]3c2cc(-c3cccs3)nn2C)cc1 | -6.54 | -10.7 | -8.1 | -8% | -4.65%
36 | COc1ccc(C2c3cccn3-c3ccccc3CN2C(=O)Nc2cccc(C)c2)cc1OC (stereo not given) | 15.7 | 3.37 | 9.38 | 9.96% | 9.2%
37 | COc1ccc(NC(=O)N2Cc3ccccc3-n3cccc3C2c2ccc(OC)c(OC)c2)cc1 (stereo not given) | 7.66 | 3.29 | 3.43 | -0.633% | 6.14%
38 | COc1cccc(CNC(=O)N2Cc3ccccc3-n3cccc3C2c2ccc(C(C)C)cc2)c1 (stereo not given) | -3.35 | 4.85 | 1.55 | -0.871% | -1.47%
